Sequences and labels used below:
B1: LINE1-full (parent)
chain: UACGUAGGUGGUUUUCCCCUGAUAGUGCUAAGGGGGCCUGGAAGUUUGGACUGGGCAGAGCUCAACACAGCGUGGCAAAGUGGCUGUGGCUAGACUGCCUCUCUGGAUUCCUCGUCACUCAGCAGGGCAUCUCUGAGAGAAAUGCC

The source gives no read counts; variants with many changes may rest on few reads.

Variants of B1 are the subject of the series. Nature of the series: self-cleavage, relative activity (ratio to wild type); higher = more cleavage; in vitro, sequencing; the parent is a self-cleaving ribozyme.
On to UACGUAGGUGGUUUUCCCCUGAUAGUGCUGAGGGGGCCUGGAAGUUUGGACUGGGCAGAGCUCAACACAGCGUGGCAAAGUGGCUGUGGCUAGACUGCCUCUCUGGAUACCUCGUCACUCAGCAGGGCAUCUCUGAGAGAGUUGCC [A30G U109A A141G A142U], for which the self-cleavage amounted to 1.33.

For UACGUAGGUGGUUUUCCCCUGAUAGUGCUUAGGGGGCCUGGAAGUUUGGACUGGGCAGAGCUCAACACAGCGUGGCAAAGUGGCUGUGGCUUGACUGCCUCUCUGGAUUCCUCGUCACUCAGCAGGGCAUCUCUGAGAGAAAAGCC [A30U A92U U143A], the self-cleavage is 0.49.

For the variant UACGUAGGUGGUUUUCCCCUGAUAGUGCUUAGGGGGCCUGGAAGUUUGGACUGGGCAGAGCUCAACACAGCGUGGCGAAGUGGCUGUGGCUAGACAGCCUCUCUGGAUUCCCCGUCACUCAGCAGGGCAUCUCUGAGAGAAAUGCC [A30U A77G U96A U112C], the self-cleavage came out at 0.14.

Consider UACGUAGGUGGUUUUCCCCUGAUAGUGCUGAGGGGGCCUGGAAGUUCGGACUGGGCAGAGCUCAACACAGCGUGGCAAAGUGGCUGUGGCUAGACUGCCUCUCUGGGUUCCUCGUCACUCAGCAGGGUAUCUCUGAGAGAAAUGCC [A30G U47C A107G C128U], for which the self-cleavage was determined as 1.62.

Turning to UACGUAGGUGGUUUUCCCCUGAUAGUGCUGAGGGGGCCUGGAAGUUUGGACUGGGCAGAGCUCAACACAGCGUGGCAAAGUGGCUGUGGCUAGACUGCCUCCCUGGAUUCCUCGUCACUCUGCAGGGCAUCUCAAAGAGAAAUGCC [A30G U102C A121U U134A G135A], the self-cleavage turned out to be 0.32.

Take UACGUAGGUGGUUUUCCCCUGAUAGUGCUUAGGGGGCCUGGAGGUUUGGACUGGGCAGAGCUCAACACAGCGUGGCAAAGUGGCUGUGGCUAGACUGCCUCUCUGGAUUCCUCGUCACUCAGCAGGGCAUCUCUGAGAAAAAUGCC [A30U A43G G139A]: the self-cleavage stood at 0.57.

For the variant UACGUAGGUGGUUUUCCCCUGAUAGUGCUGAGGGGGCCUGGAAGUUUGGACUGGGCAGAGCUCAACACAGCGUGGCAAAGUGGCCGUGGCUAGACUGCCUCUCUGGAUUCCUCGUCACUCAGCCGGGCAUCUCUGAGAGAAAUGCC [A30G U85C A124C], the self-cleavage stood at 2.16.

For UACGUAGGUGGUUUUCCCCUGAUAGUGCUUGGGGGGCCUGGAAGUUUGGACUGGGCAGAGCUCAACACAGCGUGGCAAGGUGGCUGUGGCUAGACAGCCUCUCUGGAUUCCUCGUCACUCGGCAGGGCAUCUCUGAGAGAAAUGCC [A30U A31G A79G U96A A121G], the self-cleavage is 0.

As for UACGUAGGUGGUUUUCCCCUGAUAGUGCUGAGGGGGCCUGGAAGUUCGGACUGGGCAGAGCACAACACAGCGUGGCAGAGUGGCUGUGGCUAGACUGCCUCUCUGGAUUCCUCGUCACUCAGCAGGGCAUCUCUGAGAGAAAUGCC [A30G U47C U62A A78G], the self-cleavage came out at 0.15.

For UACGUAGGUGGUUUUCCCCUGAUAGUGCUGAGGGGGCCUGGAAGUUUGGACUGGGCAGAGCACAACACAGCGUGGCAAAGUGGCUGUGGCUAGACUGCCUCUCUGGAUUCCUCGUCACUCAGCAGGACAUCUCUGAGAGAAAUGCC [A30G U62A G127A], the self-cleavage was 0.08.

Regarding UACGUAGGUGGUUUUCCCCUGAUAGUGCUUAGGGGGCCUGGAAGUUUGGACUGGGCGGAGCUCAGCACAGCGUGGCAAAGUGGCUGUGGCUAGACUGCCUCUCUGGAUUCCUCGUCACUCAGCAGGGCAUCUCUGAGAGAAAUGCC [A30U A57G A65G], the self-cleavage came out at 0.

With UACGUAGGUGGUUUUCCCCUGAUAGUGCUUAGGGGGCCUGGAAGUUUGGACUGGGCAGAGCUCAGCACAGCGAGGCAAAGUGGCUGUGGCUAGACAGCCUCUCUGGAUUCCUCGUCACUCAGCAGGGCAUCUCUGAGAGAAAUGCC [A30U A65G U73A U96A], the self-cleavage was 0.05.

With UACGUAGGUGGUUUUCCCCUGAUAGUGCUGAGGGGGCCUGGAAGUUUGGACAGGGCAGAGCUCAACACAGCGAGGCAAAGAGGCUGUGGCUAGGCUGCCUCUCUGGAUUCCUCGUCACUCAGCAGGGCAUCUCUGAGAGAAAUGCC [A30G U52A U73A U81A A94G], the self-cleavage worked out at 0.97.

Consider UACGUAGGUGGUUUUCCCCUGAUAGUGCUGAGGGGGCCUGGAAGUUUGGACAGGGCAGAGCUCAACACAGCGUGGCAAAGUGGCUGUGGCUAGACUGCCUCUCUGGAUUCCUCGUCAUUCAGCAGGGCAUCUCUGAGAGAAAUGCC [A30G U52A C118U], for which the self-cleavage was determined as 2.06.

As for UACGUAGGUGGUUUUCCCCUGAUAGUGCUGAGGGGGCCUGGAAGUUUGGACUGGGCAGAGCUCAACACAGCGUGGCAAAGCGGCUGUGGCUAGACUGCCUCUCUGGAUUCCUCGUCACUAAGCAGGGCAUCCCUGAGAGAAAUGUC [A30G U81C C120A U132C C145U], the self-cleavage was 1.15.

Turning to UACGUAGGUGGUUUUCCCCUGAUAGUGCUGAGGGGGCCUGGAAGUUUGGACUGGGCAGAGCUCAACACAGCGUGGCAAAGUGGCUGUGGCUAGACUGCCCCUCUGGAUUCCUCGUCACUCAGCAGGGCAUCUCUGAGGGAAAUGCC [A30G U100C A138G], the self-cleavage stood at 2.51.

For the variant UACGUAGGUGGUUUUCCCCUGAUAGUGCUUAGGGGGCCUGGGAGUUUGGACUGGGCAGAGCUCAACACAGCGUGGCAAAGUGGCUGUGGCUAGACUGCCUCUCUGGAUCCCUCGUCACUCAGCAGGGCAUCUCUGAGAGAAGUGCC [A30U A42G U109C A142G], the self-cleavage came out at 0.97.

With UACGUAGGUGGUUUUCCCCUGAUAGUGCUGAGGGGGCCUGGAAGUUUGGACUGGGCAGAGCCCAACACGGCGUGGCAAAGUGGCUGUGGCUAGACUGCCUCUCUGGAUUCCUCGUCACUCAGCAGGGCGUCUCUGAGAGAAAUGCC [A30G U62C A69G A129G], the self-cleavage came to 0.

As to UACGUAGGUGGUUUUCCCCUGAUAGUGCUGAGGGGGCCUGGAAGUUCGGACUGGGCAGAGCUCAACACAGCGUGGCAAAGUGGCCGUGGCUAGACUGCCUCUCUGGAUUCCUCGUCACUCAGCAGGGCAUCUCUGAGAGAAAUGCC [A30G U47C U85C], the self-cleavage came out at 0.84.

On to UACGUAGGUGGUUUUCCCCUGAUAGUGCUUAGGGGGCCUGGAAGUUUGGACUGGGCAGAGCUCGACACAGCGUGGCAAAGUGGCUGUGGCUAGACUGCCUCUCUGGAUUCCUCGUCACUCAGCAGGGCAUCUCUGAGAGGAAUGCC [A30U A64G A140G], for which the self-cleavage was determined as 0.44.

Source of the values: the RNAGym collection of RNA variant scans (doi:10.7554/elife.90254).
